Our source for the Kd, koff and kon values is paper PMC3275592, “Structural and Functional Insights into Endoglin Ligand Recognition and Binding” (PLoS ONE, 2012).

Holding throughout (settings): both partners purified
Assay [1] deals with T1, Endo338, endoglin orphan domain construct (residues 22-337) (human, UniProt P17813 22-337, Man5NAG2 glycans (5 modelled at their attachment sites)).
T1 construct: also called Endoglin338; OD; source: HEK293S GnTI- suspension cells, transfected, secreted, purified (HisTrap, gel filtration); not shown: 6xHis, C-terminal, kept
T1 sequence (looked up): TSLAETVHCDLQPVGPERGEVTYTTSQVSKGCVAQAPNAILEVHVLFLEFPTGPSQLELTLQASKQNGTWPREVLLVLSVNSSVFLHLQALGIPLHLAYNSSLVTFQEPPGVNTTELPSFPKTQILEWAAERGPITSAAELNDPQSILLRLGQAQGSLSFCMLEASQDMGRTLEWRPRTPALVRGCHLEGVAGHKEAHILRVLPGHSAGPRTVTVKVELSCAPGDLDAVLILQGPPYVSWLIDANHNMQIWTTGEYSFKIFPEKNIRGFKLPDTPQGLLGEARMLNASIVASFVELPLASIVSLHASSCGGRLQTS
Nature of the assay: SPR; Biacore T100; capture experiment: first analyte injected at 750 nM for 60 s over immobilised BMP-9 to saturate it, then the second analyte at different concentrations; 25°C; 10 mM HEPES pH 7.4, 150 mM NaCl, 3 mM EDTA, 0.05% P20; 1:1 binding model.

Assay [2] has as its target T2, HG-EndoEC, full length extracellular region of human endoglin (residues 22-587), high glycosylation (human, UniProt P17813 22-587, mature, branched sugars (high glycosylation); putative Asn glycosylation sites Asn88, Asn102, Asn121, Asn134 and Asn307 (Asn306 in Figure 1)).
T2 construct: endoglin, human, extracellular region, residues 22-587; EndoEC dimerized to some extent through a disulfide bond; also called endoglin ectodomain; source: HEK293 FreeStyle (HEK293F), transfected, secreted, purified (HisTrap, gel filtration)
T2 sequence (looked up): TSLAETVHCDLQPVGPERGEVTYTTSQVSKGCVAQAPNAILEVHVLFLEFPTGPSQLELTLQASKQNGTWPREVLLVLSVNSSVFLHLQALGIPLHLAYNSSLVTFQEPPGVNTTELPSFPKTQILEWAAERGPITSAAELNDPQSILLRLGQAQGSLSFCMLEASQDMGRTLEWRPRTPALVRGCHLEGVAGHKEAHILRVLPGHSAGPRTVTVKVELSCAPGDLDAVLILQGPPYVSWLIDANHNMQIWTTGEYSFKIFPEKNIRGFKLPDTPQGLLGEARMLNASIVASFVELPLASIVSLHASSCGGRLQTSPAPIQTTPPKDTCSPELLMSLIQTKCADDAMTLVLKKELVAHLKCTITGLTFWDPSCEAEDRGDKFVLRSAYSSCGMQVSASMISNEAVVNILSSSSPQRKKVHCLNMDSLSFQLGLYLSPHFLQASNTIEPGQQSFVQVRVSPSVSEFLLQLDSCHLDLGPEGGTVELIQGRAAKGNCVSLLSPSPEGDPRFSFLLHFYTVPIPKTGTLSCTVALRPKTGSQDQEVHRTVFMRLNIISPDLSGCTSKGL
The description is as above.

The target in assay [3] is T3, LG-EndoEC, full length extracellular region of human endoglin (residues 22-587), low glycosylation (human, UniProt P17813 22-587, short, well defined sugars of the type Man5NAG2 (low glycosylation); putative Asn glycosylation sites Asn88, Asn102, Asn121, Asn134 and Asn307 (Asn306 in Figure 1)).
T3 construct: endoglin, human, extracellular region, residues 22-587; Dimeric and monomeric species seen on gels; also called endoglin ectodomain; source: HEK293S GnTI- suspension cells, transfected, secreted, purified (HisTrap, gel filtration); not shown: 6xHis, C-terminal, kept
T3 sequence (looked up): T2 sequence (looked up)
The assay is described as above.

Assay [4] concerns the target T4, BMP-9 immobilised on the chip and saturated with captured HG-EndoEC (human, UniProt Q9UK05 320-429; P17813 22-587, mature, branched sugars (high glycosylation)).
T4 construct: BMP-9, human, carrier-free protein from R&D Systems; as m1; endoglin, human, extracellular region, residues 22-587; as m2; Non-covalent complex formed by the capture step of the SPR run; also called captured ligand HG-EndoEC on BMP-9; source: formed on the sensor chip: HG-EndoEC injected at 750 nM over amine-coupled BMP-9 (R&D Systems)
T4 sequence (looked up) 1: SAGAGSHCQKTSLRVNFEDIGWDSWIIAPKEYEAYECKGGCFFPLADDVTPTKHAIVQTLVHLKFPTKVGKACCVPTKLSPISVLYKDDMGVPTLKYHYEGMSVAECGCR
T4 sequence (looked up) 2: T2 sequence (looked up)
Described as above.

Assay [5] addresses T5, Bone morphogenetic protein 9 (BMP-9) (human, UniProt Q9UK05 320-429).
T5 construct: BMP-9, human, carrier-free protein from R&D Systems; Immobilised on a CM5 chip by amine coupling; also called Bone Morphogenetic Protein (BMP)-9; source: bought: R&D Systems (carrier free)
T5 sequence (looked up): T4 sequence (looked up) 1
Put plainly: SPR; Biacore T100; BMP-9 immobilised on CM5 chip by amine coupling; analyte alone at six concentrations 12.5-400 nM; 25°C; 10 mM HEPES pH 7.4, 150 mM NaCl, 3 mM EDTA, 0.05% P20; 1:1 binding model, global fit; apparent KD; triplicates.

B1: BMP-9 immobilised on the chip and saturated with captured HG-ALK1EC (complex)
chain 1: T4 sequence (looked up) 1
chain 2: [letters of about 100 residues omitted]
modifications: mature glycosylation; theoretical N-glycosylation site at Asn98
notes: BMP-9, human, carrier-free protein from R&D Systems; as m1; ALK1, human, ectodomain, […]; as m4; Non-covalent complex formed by the capture step of the SPR run; also called complex ALK1 - BMP-9; captured ligand HG-ALK1EC on BMP-9; source: formed on the sensor chip: HG-ALK1EC injected at 750 nM over amine-coupled BMP-9 (R&D Systems)
In the case of B1, in assay [1], the Kd came out at 155 nM, the koff is 0.192 s⁻¹ and the kon stood at 1.22e+06 M⁻¹ s⁻¹. In assay [2], this molecule gave a Kd of 15 nM, a koff of 0.0109 s⁻¹ and a kon of 711000 M⁻¹ s⁻¹. Moreover, in assay [3], the Kd was found to be 2.62 nM, the off-rate constant (koff) is 0.000913 s⁻¹ and the on-rate (kon) is 349000 M⁻¹ s⁻¹.

B2: HG-ALK1EC, ALK1 ectodomain ([…]), high glycosylation (domain or fragment)
chain: not shown
modifications: mature glycosylation; theoretical N-glycosylation site at Asn98
notes: ALK1 (activin receptor-like kinase 1), human, predicted complete ectodomain, […]; also called activin receptor-like kinase (ALK)1 ectodomain; source: HEK293 FreeStyle (HEK293F), transfected, secreted, purified (HisTrap, Superdex 75)
In assay [4], B2 yielded a Kd of 59.3 nM, a koff of 0.00772 s⁻¹ and an association rate constant (kon) of 130000 M⁻¹ s⁻¹. In addition, in assay [5], the Kd amounted to 46.4 nM, the koff came out at 0.0056 s⁻¹ and the kon worked out at 121000 M⁻¹ s⁻¹.

B3: LG-ALK1EC, ALK1 ectodomain ([…]), low glycosylation (domain or fragment)
chain: not shown
modifications: low glycosylation (HEK293S GnTI-); theoretical N-glycosylation site at Asn98
notes: ALK1 (activin receptor-like kinase 1), human, predicted complete ectodomain, […]; source: HEK293S GnTI- cells, transfected, secreted, purified (HisTrap, Superdex 75)
Turning to B3, in assay [5], the Kd is 18.9 nM, the koff worked out at 0.00403 s⁻¹ and the association rate constant (kon) was 213000 M⁻¹ s⁻¹.
